The target of assay [1] is T1, hPD-L1-Fc (human, UniProt Q9NZQ7 19-238).
T1 construct: A bought IgG1-Fc fusion (R&D 156-B7) was used for the selection; also called hPD-L1-Fc1; hPD-L1-Fc (203395); not shown: Fc part
The experiment in a line: SPR (Biacore 3000), PD-L1-Fc immobilized on CM5, Langmuir 1:1.

Assay [2] deals with T2, human PD-L1 on cells (human, UniProt Q9NZQ7 19-290).
T2 construct: whole, on cells; also called hPD-L1; HEK293-hPD-L1-cells
The experiment in a line: flow cytometry titration on PD-L1 overexpressing HEK293 cells; curve '24h human serum' (triangles, after 24 h at 37°C in human serum). On the technique in general: Flow cytometry measures light scatter and fluorescence of single cells or particles in a stream.

For assay [3], the target named is T2, human PD-L1 on cells. As to the kind of experiment: flow cytometry titration on PD-L1 overexpressing HEK293 cells; 0h mouse serum.
In assay [4] the target is T2, human PD-L1 on cells. The experiment in a line: flow cytometry titration on PD-L1 overexpressing HEK293 cells after 24 h at 37° C. in human serum; after 24 h at 37° C. in human serum.
Assay [5] has as its target T2, human PD-L1 on cells. As to the kind of experiment: flow cytometry titration on PD-L1 overexpressing HEK293 cells; curve '0h human serum' (circles, control without 24 h incubation).
Assay [6] addresses T2, human PD-L1 on cells. As to the kind of experiment: flow cytometry titration on PD-L1 overexpressing HEK293 cells; curve '24h mouse serum' (triangles, after 24 h at 37°C in mouse serum).
In assay [7] the target is T2, human PD-L1 on cells. The experiment in a line: flow cytometry titration on PD-L1 overexpressing HEK293 cells; 24h mouse serum.
Assay [8] addresses T2, human PD-L1 on cells. As to the kind of experiment: flow cytometry titration on PD-L1 overexpressing HEK293 cells; 24h human serum.
The target in assay [9] is T2, human PD-L1 on cells. As to the kind of experiment: flow cytometry titration on PD-L1 overexpressing HEK293 cells; curve '0h mouse serum' (circles, control without 24 h incubation).
Assay [10] deals with T2, human PD-L1 on cells. As to the kind of experiment: flow cytometry titration on PD-L1 overexpressing HEK293 cells; 0h human serum.
Assay [11] addresses T1, hPD-L1-Fc. The experiment in a line: SPR (Biacore), PD-L1 immobilized on CM-5 chip, 1:1 Langmuir fit (FIG. 3). (SPR reads the build-up and loss of mass on a sensor chip optically.)
For assay [12], the target named is T2, human PD-L1 on cells. As to the kind of experiment: flow cytometry, HEK293-hPD-L1 overexpressing cells, 1 µM Affilin.
In assay [13] the target is T2, human PD-L1 on cells. As to the kind of experiment: flow cytometry, H460 cells (native hPD-L1), 1 µM Affilin.
The target of the next assay is T3, hPD-1 (human, UniProt Q15116 25-167, limits assumed).
T3 construct: Soluble protein used in SPR, immobilized or injected at 1 µM; also called human PD-1
The experiment in a line: SPR (Biacore), hPD-1 immobilised on a CM5 chip, 211883 injected alone.

B1: Affilin® 215192 (designed binder)
chain: MQIFVKTLTGKTITLAVKPNDTILKVKVWIEIKEGIPPDQQRLIWAGKQLEDGRTLSDYNIQKESTLHLVLRLRAAGGGGSGGGGSGGGGSGGGGSMQIFVKTLTGKTITLAVKPNDTILKVKVWIEIKEGIPPDQQRLIWAGKQLEDGRTLSDYNIQKESTLHLVLRLRAA
B1: binding with hPD-L1-Fc [1] was put at a Kd of 8 nM.

B2: Affilin® 211960 (designed binder)
chain: MQIFVQTDTGKTITLEVEPSDTIENVKAKIQDKEGIPPDQQRLIWAGKQLEDGRTLSDYNIGIVAPLHLVLRLRAAMQIFVFTWTGKTITLEVEPSDTIENVKAKIQDKEGIPPDQQRLIWAGKQLEDGRTLSDYNIGNGWMLHLVLRLRAA
In the case of B2, the dissociation constant (Kd) – broadly, the concentration at which binding is half-saturated – with hPD-L1-Fc [1] was found to be 220 nM.

B3: Affilin® 215306 (designed binder)
chain: MQIFVKTLTEQAQEHGKTITLEVEPSDTIENVKAKIQDKEGIPPDQQRLIWAGKQLEDGRTLSDYNIPYWWPLFLFLGLRAA
notes: Ubiquitin mutein with an insertion between positions 9 and 10; also called CID 215306
B3: the Kd with hPD-L1-Fc [1] is 11 nM.

B4: Affilin® 215220 (designed binder)
chain: MQIFVKTLTFKIIPAGKTITLEVEPSDTIENVKAKIQDKEGIPPDQQRLIWAGKQLEDGRTLSDYNIDWPAMLTLSLPLRAA
notes: Ubiquitin mutein with an insertion between positions 9 and 10; Detected via Strep-Tag in flow cytometry; also called CID 215220
For the molecule B4, the Kd worked out at 0.48 nM with human PD-L1 on cells [2]; 0.096 nM with hPD-L1-Fc [1]; 0.4 nM with human PD-L1 on cells [4]; 0.5 nM with human PD-L1 on cells [5]; 1.15 nM with human PD-L1 on cells [6]; 0.67 nM in the assay with human PD-L1 on cells [9]. The EC50 (read off the curve) – broadly, the concentration at which the effect is half-maximal – with human PD-L1 on cells [3] was approximately 0.7 nM; with human PD-L1 on cells [7], approximately 1 nM; in the assay with human PD-L1 on cells [8] it was approximately 0.5 nM; in the assay with human PD-L1 on cells [10], approximately 0.5 nM.

B5: Affilin® 211904 (designed binder)
chain: MQIFVKTLTVLEMGKTITLEVEPSDTIENVKAKIQDKEGIPPDQQRLIWAGKQLEDGRTLSDYNIHSFPMLELLLTLRAA
notes: Ubiquitin mutein with an insertion between positions 9 and 10; Detected via Strep-Tag in flow cytometry
Consider B5, for which the Kd stood at 4 nM with hPD-L1-Fc [1] and 3.6 nM in the assay with hPD-L1-Fc [11]. For the same molecule, the “flow cytometry cell binding signal at 1 µM (read-out not named)” value with human PD-L1 on cells [12] was found to be 41; with human PD-L1 on cells [13], 18.

B6: Affilin® 211620 (designed binder)
chain: MQIFVWTIITKRITLEVEPSDTIENVKAKIQDKEGIPPDQQHLVWEGKQLEDGRTLSDYNIEKYDYLFLNLHLRAA
notes: Ubiquitin mutein; Detected via Strep-Tag in flow cytometry
For B6, in the assay with hPD-L1-Fc [1], binding was put at a Kd of 15 nM. Also, the “flow cytometry cell binding signal at 1 µM (read-out not named)” value with human PD-L1 on cells [12] stood at 95.3; in the assay with human PD-L1 on cells [13] it was 6.1.

B7: Affilin® 215258 (designed binder)
chain: MQIFVVTEEDKVITLEVEPSDTIENVKAKIQDKEGIPPDQQMLHWSGKQLEDGRTLSDYNIFDAKILLLHLILRAA
notes: Ubiquitin mutein; Detected via Strep-Tag in flow cytometry; also called CID 215258
B7: binding with hPD-L1-Fc [1] was put at a Kd of 100 nM. Further, the “flow cytometry cell binding signal at 1 µM (read-out not named)” value in the assay with human PD-L1 on cells [12] turned out to be 289; in the assay with human PD-L1 on cells [13], 3.98.

B8: Affilin® 211883 (designed binder)
chain: MQIFVKTLTGKTITLAVKPNDTILKVKVWIEIKEGIPPDQQRLIWAGKQLEDGRTLSDYNIQKESTLHLVLRLRAA
notes: Ubiquitin mutein modified in the alpha-helical region
B8: the Kd with hPD-L1-Fc [1] is 91 nM. In addition, the binding result with hPD-1 is reported as “no binding (tested: 1 µM)”.

Values taken from patent US20240218032A1 (NAVIGO PROTEINS, published 2024).
